In the supplement of paper PMC11417369:
± gives the standard deviation of the averaged measurements. The list shows a part of the results.

system: PfAP2-I AP2 domain 3 (GST-tagged); test: gcPBM binding intensity (ln(normalized median fluorescence intensity)); higher = stronger DNA binding
Procedure, shortened: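 After 1 h on an Agilent 4 × 180k array of primer-extended double-stranded 36-bp intergenic genomic probes and negative controls, bound GST-tagged P. falciparum DNA-binding domains were detected with Alexa488 anti-GST antibody and scanned at 488 nm. The domains had been expressed in E. coli, and binding took place in 1× PBS with 1% milk, 0.2 mg/ml BSA, 0.5% salmon testes DNA and 0.03% Triton X-100. Binding intensity is the highest Masliner-normalised natural-log median intensity across replicate spots of either probe orientation.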

Point of comparison: “CGTTTCCCCAATGGTTGTACAATATATATATATATA [XGTACX_site8641]”, “gcPBM binding intensity (ln)” value 9.46 ± 0.12. Against it:
- TTATTTATAATGTTGTGTACATATATGAATATACCA [XGTACX_site3111] — lower, 7.67 ± 0.32
- TATTTTACGTATTGTTGTACTTGAAACAAATATACA [XGTACX_site8778] — lower, 7.84 ± 0.35
- TTTTTTCAATTGGAAATTATTTTACAATGAAGGGTA [XGTACX_negctrl_site469] — lower, 7.69 ± 0.3
- GATATATATACATGTGTGCACCATGCAACTTGTTTT — higher, 10.4 ± 0.13
- TATAAACATAAATATACACACAAACATATATGTATT [CACACA_site8324] — lower, 7.87 ± 0.25
- AGACATATAATATATACACACATATATATATATATA [CACACA_site1066] — within error, 9.18 ± 0.31
- TTGTGTTTTATTATTTTATTATTACTATTATAATGT [GTGCAC_negctrl_site484] — lower, 7.88 ± 0.61
- TAAAAATGGGTATGTACACACTTTATTTTTAATACA [CACACA_site5404] — lower, 7.73 ± 0.16
- ATAAAACATAAATACATACACACATAATATATATTA [CACACA_site110] — lower, 7.82 ± 0.21
- ACATATTTAAAAACATGTACAAATATATTTATAATT [XGTACX_site661] — lower, 7.67 ± 0.47
- AAGGAAGATATATACACACATACAAATATATATATA [CACACA_site2181] — lower, 9 ± 0.11
- TGTAATGTTTACAACACACAAATTAGAAATACAAAA [CACACA_site6924] — lower, 7.76 ± 0.68
- TATCTTATTTTATCTCGTACATAAAATTAAAAAATT [XGTACX_site3636] — lower, 7.78 ± 0.17
- TTAAATTACTAATGTGCACACATACTAACGTTTAAA [CACACA_site3573] — higher, 9.93 ± 0.014
- TTTTATTTATTATTTACACACACGTAGGTGTCCATA [CACACA_site430] — lower, 7.89 ± 0.62
- AATATGTATCCATACACACATACATTTTATTTGCAA [CACACA_site874] — lower, 7.91 ± 0.73
- CATTTTATTTTAATATGTACTTAAAGAAAAAAAATT [XGTACX_site7670] — lower, 7.87 ± 0.31
- TTTTGACATTAATTACTATAGTGTTCTTATAAAATT [TGCATGCA_negctrl_site589] — lower, 7.76 ± 0.64
- AATACATAAAAATAAAAATAAAATATAACTAATATG [CACACA_negctrl_site186] — lower, 7.46 ± 0.67
- AAAACTATAATGAATAGTACATAAAAATGGATATAT [XGTACX_site6056] — lower, 7.93 ± 0.73
- AATCGATAAAATGTTGTGCACATATTTTTATATTTA [GTGCAC_site9651] — higher, 10.5 ± 0.22
- TTATACATATATTTAACACACATTTTATAAAGTGCC [CACACA_site1314] — lower, 7.95 ± 0.54
- TATATACACATGCGCACACACAAGTGGGAAATTTGG [CACACA_site6930] — lower, 8.45 ± 0.78
- AATATTTGCCTATGTTGTACTGACATTTTTTTAAGT [XGTACX_site6836] — lower, 7.91 ± 0.54
- TAATAATCCACAAGCACACACACACCCATATATATA [CACACA_site1267] — lower, 8.51 ± 0.61
- TTAAGGATCCACGATACACACATATCATTCAACAAA [CACACA_site1924] — lower, 7.57 ± 0.54
- ATATATAATATATGATGTACTTAATAATTTTTTTTT [XGTACX_site5715] — lower, 7.41 ± 0.3
- TTAACCTTTATATAATACGTATCATCCTCATATATA [CACACA_negctrl_site86] — lower, 8.02 ± 0.71
- ATATAAAATCAACAAAAAAAAAAAATATATATATAT [XGTACX_negctrl_site251] — within error, 9.26 ± 0.23
- TGTATATATTTGTGCACACCAAAGTTTGATTTTATT [CACACA_site1860] — higher, 10.9 ± 0.099
- TTATATTTTTTAATTACACACAATTCTTATAAATAT [CACACA_site7870] — lower, 7.72 ± 0.52
- TATTATAACTAAAAAAATCACATAAAATACTTTATT [CACACA_negctrl_site2] — lower, 7.24 ± 0.41
- GTTATTAAAAACGGGTGTACACATATATAAATATAT [XGTACX_site1234] — lower, 8.28 ± 0.52
- TATTTATTATAAAAATTGTATAAAATAATAATGCTC [GTGCAC_negctrl_site456] — lower, 7.71 ± 0.45
- AAATTGGGGCTTGTTACACACTTAGTGTGAGTTCTA [CACACA_site6417] — lower, 7.84 ± 0.58
- ATTTATAATATGTATACACACACATATATAAATATA [CACACA_site8729] — lower, 7.67 ± 0.49
- TATAATCATAAATACACACACATATATATATATATA [CACACA_site5224] — within error, 9.15 ± 0.49
- TTCTCATCCTTACATACACACACATATATATATATA [CACACA_site7914] — within error, 9.49 ± 0.25
- GTTCAATTATTTTTATGTACATATATTTTTTTCTTT [XGTACX_site2505] — lower, 8.3 ± 0.49
- TAAAAAAAAAAAAAAGTACACACTTATAAAATATTA [CACACA_site872] — lower, 7.77 ± 0.38
- ATATATTTTTTGAATACACACATATTATATGTAATA [CACACA_site1256] — lower, 7.81 ± 0.57
- ACAAATGAGATTATATGTACACATAACAAATTTACA [XGTACX_site3496] — lower, 7.83 ± 0.26
- GTTACACCAACAAACACACACACACCGACACCCAAA [CACACA_site5361] — lower, 8.32 ± 0.014
- AAATGTAAAATTTTATGTACATATATTTATATAATA [XGTACX_site3737] — lower, 7.78 ± 0.33
- ATGTTTTATAAAAGGCGTACACATATATTTAAGTAA [XGTACX_site6231] — lower, 8.495 ± 0.064
- TTTATTTATTTAATTACACACGAACATATAACCATT [CACACA_site7952] — lower, 8.03 ± 0.5
- TTCATTCTATAAAACACACAAATATTTTTGTATCCC [CACACA_site6458] — lower, 7.71 ± 0.69
- ATATATTTTAATGATACACACAAGAAATAAAATTAC [CACACA_site5671] — lower, 8.01 ± 0.46
- ATAGAACAATTCAGAAGTACATAAAAAGAAAAATTT [XGTACX_site3015] — lower, 7.75 ± 0.79
- TTGGATGATTAAGGGGGACACACGTTTATATATTTA [CACACA_site338] — lower, 8.82 ± 0.32
- TTTTGTGATCTTACCACCTTTCATAATATTAATAAA [GTGCAC_negctrl_site360] — lower, 8.3 ± 0.53
- TTTCACAAATGATATAGTACTTTTTATTATTAACAT [XGTACX_site7976] — lower, 7.72 ± 0.56
- ACTTTTTTAATGTTACGTACACATAAATAATAATTA [XGTACX_site8092] — lower, 8.35 ± 0.2
- GTACACATATAGTAATAATTTTATTATATTTTTTTG [CACACA_negctrl_site843] — lower, 7.53 ± 0.64
- ATTTTAATATAAAATACACACTACTATTATAAATAT [CACACA_site4917] — lower, 7.53 ± 0.56
- ATTCTTATTTAAAGGTGTACTCTTAAACAGATTTTA [XGTACX_site3526] — lower, 7.79 ± 0.43
- CACCCCCACAGACACACACACACACCCACATATATA [CACACA_site365] — lower, 8.85 ± 0.014
- TTCATAAAATGATATTGTACAAATAAATAATAGTAT [XGTACX_site819] — lower, 8.1 ± 0.52
- AGATTTAAATTTATATGTACATAATATGGGCGTATA [XGTACX_site6631] — lower, 8.07 ± 0.29
- GGTCTTCTTAATATACTGCACTGTATACGTATATAA — higher, 11 ± 0.61
- TGTAGATTTTGTAACACACACATATATATACATATA [CACACA_site2405] — lower, 7.71 ± 0.41
- CTTATTATTATATGGGTGCTCATATTTTTCTTTTTT [GTGCAC_site9723] — lower, 8.59 ± 0.36
- ACAAACATTAGGGAAGCATGCAATATTTTTTTACAT [TGCATGCA_site372] — lower, 7.93 ± 0.57
- ATTATATACATATATATACACACGTAGTTTCTATTT [CACACA_site8697] — lower, 7.66 ± 0.51
- ATATATATATATAAATGTACATTTTTCAATAGTTTT [XGTACX_site7449] — within error, 9.04 ± 0.33
- TATAAATAAATAGATACACACATATATATAAATACA [CACACA_site155] — lower, 7.55 ± 0.5
- TACTTTTTATTTTCTTGTACTTAATTGTCCAGATTT [XGTACX_site4334] — lower, 7.9 ± 0.73
- TAGATATATAGACACACACACATTAATACCTATATT [CACACA_site7605] — lower, 8.1 ± 0.22
- TGTCATTTAATTTTTTGTACGAAAAAAACATATAAA [XGTACX_site4952] — lower, 8.07 ± 0.16
- AGTTGTTTTAATAATGCATGTTATTTTATTTTAATA [TGCATGCA_site168] — lower, 7.99 ± 0.81
- GTATATATATATGTATATATTTTATTTTATTTTTAT [CACACA_negctrl_site1439] — lower, 7.43 ± 0.35
- TATATATATAGACACACACACACATATATATATATA [CACACA_site9366] — within error, 9.16 ± 0.3
- GTACATAGATTGTACATACACACCTATATAAATATC [CACACA_site3225] — lower, 7.84 ± 0.42
- TTTTTTTTGTTCTATACAATTATAAAAATAAAATAT [XGTACX_negctrl_site53] — lower, 7.58 ± 0.43
- AATATATGGTTCCATGATATTAAATTCAATTTAATG [CACACA_negctrl_site605] — lower, 7.37 ± 0.62
- TAATATCATTTATGTAGTACTATAACAAGAACTATA [XGTACX_site3618] — lower, 7.65 ± 0.17
- AAAAAAAAAAAGCACACACACATATGAGTATATATA [CACACA_site4683] — lower, 8.03 ± 0.15
- GCTTATATAAAAAGTTGTACAACCGAATCTTTTACA [XGTACX_site2119] — lower, 8.09 ± 0.32
- TACACAAGCAGACACACACACATATATATATATATA [CACACA_site1270] — within error, 9.36 ± 0.35
- AATGTAAAAGTAAACACACACATATATAAATACATA [CACACA_site5386] — lower, 7.63 ± 0.54
- AAGGGGTAAAGAAAAACACACAAAAAATAAAAATAT [CACACA_site361] — lower, 8.24 ± 0.19
- AAGAGAAAAATATATACACACACATAAATATATACA [CACACA_site8573] — lower, 7.62 ± 0.49
- TGCATACTTTTGTAAGTGCATAAAATCGTACCATGC — higher, 10.2 ± 0.36
- GAAATAATTCGATGTGCATGTAACGTTTCCCCAAAG [TGCATGCA_site122] — lower, 8.58 ± 0.54
- GATGAAAATAGAAATACACACTAAAAAATAAAATTA [CACACA_site4764] — lower, 7.56 ± 0.69
- AATTAAAAAAAATACACACACACATACACATATATA [CACACA_site3298] — lower, 7.88 ± 0.21
- CGTATTTATATAATTACACACCATATTATAATTATT [CACACA_site3760] — lower, 8.04 ± 0.41
- CCAAAAAAAAAAAAAAGTACATAAAAACAAGAGAAT [XGTACX_site3037] — lower, 8.23 ± 0.58
